According to PubChem BioAssay AID1671188 (National Center for Advancing Translational Sciences (NCATS), 2021):
The campaign covered roughly 100,000 compounds. About 250 (0.25%) were called active. Inconclusive means that the source gave no clear call. Such entries were picked first, then a sample of the others. Calls follow the shape of the dose curve; as a rule, active = well fitted inhibition curve with a large enough effect; inconclusive = small, poorly fitted or top-dose-only effect; inactive = flat fitted curve, though single readings scatter. No potency is given beside an inconclusive call; the fits are too rough.

Target: Alanine aminotransferase 2 (Homo sapiens) (UniProt Q8TD30)
UniProt Q8TD30, sequence (Q8TD30 whole entry, looked up): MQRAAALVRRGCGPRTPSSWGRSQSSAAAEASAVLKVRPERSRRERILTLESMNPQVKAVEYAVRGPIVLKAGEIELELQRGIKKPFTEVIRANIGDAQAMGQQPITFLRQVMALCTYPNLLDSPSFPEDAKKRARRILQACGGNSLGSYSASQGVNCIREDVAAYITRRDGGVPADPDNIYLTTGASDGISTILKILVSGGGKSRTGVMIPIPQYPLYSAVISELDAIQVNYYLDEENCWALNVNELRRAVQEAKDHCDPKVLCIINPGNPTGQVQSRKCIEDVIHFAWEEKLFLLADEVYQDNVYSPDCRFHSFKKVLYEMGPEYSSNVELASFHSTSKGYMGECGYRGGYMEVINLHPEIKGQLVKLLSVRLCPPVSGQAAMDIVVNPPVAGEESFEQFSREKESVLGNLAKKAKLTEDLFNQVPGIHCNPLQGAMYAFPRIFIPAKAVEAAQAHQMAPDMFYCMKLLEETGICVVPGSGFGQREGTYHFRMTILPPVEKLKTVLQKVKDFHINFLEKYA
Experiment: Primary qHTS assay for inhibitors of Glutamate pyruvate transaminase 2 (GPT2); also: nearly all actives have a fitted effect of over 60% in size
Conditions: Recombinant GPT2, coupled pyruvate oxidase/HRP Amplex Red fluorescence; activity change, negative = inhibition: at 57.7 µM (top of the series) unless noted; series mostly up to 57.7 µM
In short: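 Inhibition is scored from Amplex Red fluorescence generated when pyruvate oxidase and HRP act on pyruvate released by GPT2. Reactions contain 10ng/uL enzyme, 250uM a-KG and 2mM L-alanine and run 30 min at room temperature.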
% is scaled to controls: 0 for no effect and ±100 for the full control effect; potency is read from the fitted curve at half-maximal effect; tags tell the direction and shape of the fitted curve.

Q: `c1cnc2c(c1)ccc1cccnc12` was tested. Which Potency did it give?
A: inconclusive [inhibitor, single point]

Q: For `CCCCn1nc(C2CCOC2)nc1-c1cnc(NC)nc1` (configuration not stated), which Potency is on record?
A: inconclusive [inhibitor, single point]

Q: For `COC1(CC(C)C)NC(=O)C(O)(Cc2ccccc2)NC1=O` (configuration not stated), which “outcome” value is on record?
A: inactive [at 27.3 µM]

Q: For `COc1ccc(CC(=O)NC2CCN(c3cc(-c4ccc(Cl)cc4)[nH]n3)C2)cc1OC` (configuration not stated), which Potency is on record?
A: inconclusive [inhibitor, partial curve]

Q: `Cc1cc(-c2nc3ccncc3[nH]2)c(C)o1` was tested. Which Potency did it give?
A: inconclusive [inhibitor, single point]

Q: How did the Potency turn out when `COc1ccc(NC(=O)Cn2c(N3CCc4ccccc4C3)nc(C)cc2=O)cc1OC` was run?
A: inconclusive [inhibitor, single point]

Q: How did the Potency turn out when `Cc1ncoc1C(=O)N[C@@H]1CN(Cc2cccnc2)C[C@H]1CN(C)C` was run?
A: inconclusive [inhibitor, partial curve, poor fit]

Q: With `O=C(c1ccccc1)N1CCN(C(=O)c2nnn3c2COC(c2ccccc2)C3)CC1` (configuration not stated) as the compound, how does the “outcome” value read?
A: inactive

Q: `Cc1cc(C(=O)N2C[C@H]3CN(C4CCOCC4)C[C@@]3(C(=O)O)C2)n[nH]1` was tested. Which Potency did it give?
A: inconclusive [inhibitor, single point]

Q: How did the “outcome” value turn out when `O=C(Nc1ccc2oc(-c3ccccc3)nc2c1)C1CCN(c2cnn(Cc3ccccc3)c(=O)c2)C1` (configuration not stated) was run?
A: inactive

Q: With `CCn1c(-c2nonc2N)nc2cncc(CNC3CCNCC3)c21` as the compound, how does the Potency read?
A: inconclusive [inhibitor, single point]

Q: With `Cn1ncc2c(C(=O)NCCCc3ccccc3)cc(-c3ccc(Cl)cc3)nc21` as the compound, how does the “activity change, negative = inhibition” value read?
A: inactive: 4.17%

Q: How did the Potency turn out when `O=C(NCCNc1cccnc1)C1CCC(=O)N(C2CC2)C1` (configuration not stated) was run?
A: inconclusive [inhibitor, single point]

Q: `COc1ccc(C2(C(=O)N3CC(CO)C4(CCNCC4)C3)CCCCC2)cc1` (configuration not stated) was tested. Which Potency did it give?
A: inconclusive [inhibitor, partial curve, poor fit]

Q: Which Potency does the source give for `CC(=O)N(O)CCCCCNC(=O)CCC(=O)N(O)CCCCCNC(=O)CCC(=O)N(O)CCCCCN` here?
A: inconclusive [inhibitor, partial curve]

Q: For `COc1ccc(-c2cnc3[nH]cc(CC(=O)N4CCCC4)c3c2)cc1`, which Potency is on record?
A: inconclusive [inhibitor, single point]

Q: Which Potency does the source give for `CN1[C@@H](CCC(=O)NCc2ccccc2)CNC(=O)[C@@H]2[C@H]1CCN2C1CCOCC1` here?
A: inconclusive [inhibitor, single point]

Q: `O=C(c1ccccc1)N1CCCC(c2nn(-c3ccccc3)c(=O)[nH]2)C1` (configuration not stated) was tested. Which Potency did it give?
A: inconclusive [inhibitor, full curve, poor fit]

Q: How did the “outcome” value turn out when `CN(C)c1ccc(-n2cnc3cccnc32)cc1` was run?
A: inactive [at 88.5 µM]

Q: With `CCOC(=O)C1(C/C=C/c2ccccc2)CCCNC1` (configuration not stated) as the compound, how does the Potency read?
A: inconclusive [inhibitor, single point]

Q: `Cc1noc(C)c1-c1cc(-c2ccccc2F)cn2cncc12` was tested. Which “activity change, negative = inhibition” value did it give?
A: inactive: -14.2% [at 88.5 µM]

Q: With `Cc1noc(-c2ccccc2OC2CCN(C(=O)CC3CCCCC3)C2)n1` (configuration not stated) as the compound, how does the Potency read?
A: inconclusive [inhibitor, full curve, poor fit]

Q: With `Cc1cccc(CC(=O)N2CCCCC2c2noc(COc3ccc(F)cc3)n2)c1` (configuration not stated) as the compound, how does the “outcome” value read?
A: inactive

Q: For `CCCOCCCNC(=O)c1c(C)noc1-c1ccccc1OC`, which “activity change, negative = inhibition” value is on record?
A: inactive: -18.2%

Q: `COCCNc1nc2cc(-c3nc(-c4cccnn4)no3)ccc2n1C` was tested. Which Potency did it give?
A: inconclusive [inhibitor, single point]

Q: With `O=C(NCCC1CCN(C(=O)Nc2cccc(F)c2)CC1)c1ccccc1` as the compound, how does the Potency read?
A: inconclusive [inhibitor, partial curve, poor fit]

Q: With `COc1ccc(N2CC3CCC(C2)N3Cc2ccc(NC(C)=O)cc2)cc1` as the compound, how does the Potency read?
A: inconclusive [inhibitor, partial curve]

Q: `CN(Cc1cccnc1)c1nc2c(c(=O)[nH]1)CCN(Cc1cccc(F)c1F)CC2` was tested. Which Potency did it give?
A: inconclusive [inhibitor, single point]

Q: How did the “activity change, negative = inhibition” value turn out when `Cc1cccc(-c2cccc(CN3CCC(NC(=O)c4ccccc4F)CC3)c2)c1` was run?
A: inactive: 0.554%

Q: Which Potency does the source give for `Cc1nn(C)c(C)c1CCC(=O)N1CCc2[nH]cnc2C1C(=O)O` (configuration not stated) here?
A: inconclusive [inhibitor, single point]

Q: For `Clc1cccc(-c2cnc([C@@H]3COCCN3Cc3ncc[nH]3)[nH]2)c1`, which “activity change, negative = inhibition” value is on record?
A: inactive: -8.94% [at 88.5 µM]

Q: For `Cc1noc(C)c1Cc1ccc(C(=O)NCC23CCCC=C2NC(=O)CC3)o1` (configuration not stated), which Potency is on record?
A: inconclusive [inhibitor, single point]

Q: `O=C(NCCCN1CCCCC1)C1CCN(C(=O)N2CC3CC(C2)[C@H]2CCCC(=O)N2C3)CC1` (some centres not stated) was tested. Which Potency did it give?
A: inconclusive [inhibitor, full curve, poor fit]

Q: With `CN1C(=O)C(CC(=O)NCc2cccs2)Sc2ncccc21` (configuration not stated) as the compound, how does the “outcome” value read?
A: inactive

Q: `CNC(=O)C1CCCN(c2ccnc3ccnn23)C1` (configuration not stated) was tested. Which Potency did it give?
A: inconclusive [inhibitor, single point]

Q: `CCCCn1c(=O)c(C(=O)N2CCN(C(=O)N(C)C)CC2)nc2cccnc21` was tested. Which “outcome” value did it give?
A: inactive

Q: Which Potency does the source give for `O=C(N1CCN([S+](=O)([O-])Cc2ccccc2F)CC1)N1CC2CC(C1)[C@H]1CCCC(=O)N1C2` (some centres not stated) here?
A: inconclusive [inhibitor, single point]

Q: With `COc1ccc(OC)c(NC(=O)Cn2ccn3nc(-c4ccccc4)c(CO)c3c2=O)c1` as the compound, how does the Potency read?
A: inconclusive [inhibitor, single point]

Q: `Cc1c(C)c2c(c(C)c1OC(=O)CCC(=O)OCCO)CC[C@@](C)(CCC[C@H](C)CCC[C@H](C)CCCC(C)C)O2` was tested. Which Potency did it give?
A: inconclusive [inhibitor, full curve, poor fit]

Q: How did the “activity change, negative = inhibition” value turn out when `Cc1cccc(-c2cccc(CN3CCCC(C(=O)NCC4CC4)C3)c2)c1` (configuration not stated) was run?
A: inactive: 4.37%

Q: `COCc1cc(C[C@H]2CNCC[C@H]2CC(=O)NCc2ccccc2OC)no1` was tested. Which Potency did it give?
A: inconclusive [inhibitor, partial curve, poor fit]

Q: Which Potency does the source give for `COc1ccc(C[C@H](NC(=O)C2=C[C@@H](NC(=O)c3cc(OC)ccc3Br)[C@@H](O)[C@H](O)C2)C(N)=O)cc1` here?
A: inconclusive [inhibitor, full curve, poor fit]
